# From PubChem BioAssay AID686978 (National Center for Advancing Translational Sciences (NCATS), 2013)
# About 64,000 (15%) of roughly 420,000 compounds were called active. The inconclusive results got no clear call from the source; some entries with a clear call stand among them for comparison. Calls come from the whole dose curve; as a rule, active = well fitted inhibition curve with a large enough effect; inconclusive = small, poorly fitted or top-dose-only effect; inactive = flat fitted curve, though single readings scatter. No potency is given beside an inconclusive call; the fits are too rough.
# Assay: qHTS for Inhibitors of human tyrosyl-DNA phosphodiesterase 1 (TDP1): qHTS in cells in absence of CPT; note: nearly all actives have a fitted effect of over 55% in size
# Conditions: DT40 Tdp1-/- hTDP1 cells, no CPT, ATP luminescence, 48 h; activity change, negative = growth inhibition: at 46.2 µM (top of the series) unless noted
# Outline: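 DT40 Tdp1-/-;hTDP1 cells, no CPT (DMSO vehicle only), 400 cells/well; compounds pin-transferred; ≥48 hr, 37 °C; CellTiter-Glo 30 min RT dark, luminescence read.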
# % is set by controls: 0 for no effect and ±100 for the full control effect; potency is the fitted concentration of half-maximal effect; tags give direction and shape of the fitted curve.
SMILES,Potency,"activity change, negative = growth inhibition"
COc1ccc(/C=C/c2cnccn2)cc1OC,inactive,–
CCN(CC)CCNC(Cc1ccccc1)c1cccc(OC)c1 (stereo not drawn),"inconclusive [inhibitor, single point]",–
COC(=O)N1CCCCC1c1cc(C(=O)NCc2ccccc2)no1 (stereo not drawn),inactive,–
Cc1nc(-c2ccc(F)cc2)c(CC(=O)N2CCN(S(=O)(=O)c3ccc(F)cc3)CC2)s1,"inconclusive [inhibitor, single point]",–
Cc1noc(C)c1S(=O)(=O)N(CC(=O)NC(C)c1ccccc1)c1ccc(C(C)C)cc1 (stereo not drawn),"inconclusive [inhibitor, single point]",–
N=C(N)SCc1cn(-c2ccccc2)nc1-c1ccc(Br)cc1,active: 7.31 µM,–
CCOC(=O)C1(CC2CCCCO2)CCN(C(=O)Nc2ccc(SC)cc2)CC1 (stereo not drawn),"inconclusive [inhibitor, partial curve]",–
Cc1nn2c(=O)cc(COC(=O)c3ccc(NC(=O)COc4ccc(C)c(C)c4)cc3)nc2s1,"inconclusive [inhibitor, partial curve]",–
Cc1nn(Cc2ccc(F)cc2)c(C)c1NC(=O)CCCn1nc([N+](=O)[O-])cc1C,inactive,–
O=C(Cn1nnc2ccccc2c1=O)Nc1cccc(S(=O)(=O)N2CCOCC2)c1,inactive,–
Cc1ccc(NC(=O)c2c(C(F)(F)F)nn(C)c2SCc2ccc(Cl)cc2)cc1C,active: 23.1 µM,–
O=C(CN1CCN(C(=O)C2CC2)CC1)Nc1cc(C(F)(F)F)cc(C(F)(F)F)c1,"inconclusive [inhibitor, single point]",–
Cc1cc(C)cc(C(O)c2ncc(-c3ccc4ccccc4c3)[nH]2)c1 (stereo not drawn),"inconclusive [inhibitor, single point]",–
CCNS(=O)(=O)c1cc(OC)ccc1OC,inactive,–
COC(C[C@@H]1O[C@@H]1C(=O)[C@@H](C)OCc1ccccc1)OC,inactive,–
O=C(Nc1ccc(N2CCCC2)c(Cl)c1)c1ccc2c(c1)OCCO2,active: 20.6 µM,–
CSc1ccccc1C(=O)Nc1ccc2c(c1)OCO2,inactive,–
Cc1nc2ccccc2c(=O)n1/N=C/c1ccc(F)cc1,inactive,–
COC(=O)c1ccc(=O)n(CC(=O)c2ccc(Cl)cc2)c1,inactive,–
CCN(CC)C(=O)c1[nH]cnc1C(=O)N[C@@H](Cc1ccccc1)C(=O)OC(C)(C)C,"inconclusive [inhibitor, single point]",–
CC1CCC2C(=O)N(c3ccc(C(=O)Oc4cccc5cccnc45)cc3)C(=O)C2C1 (stereo not drawn),active: 0.651 µM,–
Cc1ccc(NC(=O)C2CCN(C(=O)c3ccco3)CC2)cc1C,inactive,–
COC(=O)c1cc(NC(=O)c2ccccc2)c(=O)oc1C/C=N\OCc1ccc(Cl)cc1Cl,"inconclusive [inhibitor, full curve]",–
COc1ccccc1CN(C)CC(=O)Nc1ccc(Cl)cc1F,"inconclusive [inhibitor, single point]",–
CN(C(=O)Cn1nnc2ccccc2c1=O)C1CCCCC1,inactive,–

SMILES,Potency,"activity change, negative = growth inhibition"
CCOc1ccccc1N1CCN(C(=O)c2ccc3c(c2)OCO3)CC1,"inconclusive [inhibitor, partial curve]",–
COc1ccc(CCN(C)C2CC(=O)N(c3ccccc3)C2=O)cc1OC (stereo not drawn),"inconclusive [inhibitor, single point]",–
CCOc1ccc(C2CC(=O)Nc3nc(SCc4ccccc4C)[nH]c(=O)c32)cc1OC (stereo not drawn),active: 14.6 µM,–
CN1C(=O)N(C)c2cccc3cccc1c23,inactive,–
C[C@@H]1CCCCO[C@H](CN(C)S(=O)(=O)c2cn(C)cn2)[C@H](C)CN([C@@H](C)CO)C(=O)c2cc(NC(=O)c3ccccc3)ccc2O1,"inconclusive [inhibitor, full curve, poor fit]",–
Cc1ccc(CCNC(=O)c2ccc3nc(N4CCC(C)CC4)sc3c2)cc1,"inconclusive [inhibitor, full curve, poor fit]",–
COc1cccc(C(NC(C)=O)c2nc(-c3cccs3)cs2)c1 (stereo not drawn),inactive,–
O=C(Nc1ccccc1)c1cc(C2CCCN(C(=O)c3cccs3)C2)on1 (stereo not drawn),inactive,–
O=C(CSc1ccc(Cl)cc1)N1CCN(c2ccc(Cl)cc2[N+](=O)[O-])CC1,"inconclusive [inhibitor, single point]",–
O=C(CN1CCN(c2ccc(F)cc2)CC1)Nc1cc(C(F)(F)F)ccc1Cl,"inconclusive [inhibitor, partial curve]",–
COc1ccc(-c2cc(-c3ccccc3)n[nH]2)c(O)c1,inactive,–
O=C(NCCN1CCOCC1)c1ccc(CSc2nc3ccncc3n2Cc2ccc(F)cc2)cc1,"inconclusive [inhibitor, partial curve, poor fit]",–
CN(CC(=O)Nc1cccc(F)c1)C(=O)/C=C/c1cc(Br)ccc1OC(F)F,active: 5.8 µM,–
Cc1ccc(S(=O)(=O)N(C)c2ccccc2C(=O)Nc2ccc3c(c2)OCCO3)cc1,"inconclusive [inhibitor, single point]",–
CCC(C)/C(C)=N/NC(=O)CSc1nc2ccccc2[nH]1 (stereo not drawn),inactive,–
CCN(c1cccc(C)c1)S(=O)(=O)c1ccc(-c2ccc(=O)[nH]n2)o1,inactive,–
CC1(O)CC2CC1C(C(=O)O)C2C(=O)O (stereo not drawn),inactive,–
OC[C@@H]1CN(Cc2ccc(F)cc2)C[C@H](n2cnc3c(NCc4ccco4)ncnc32)O1,–,inconclusive: -30.8% [inhibitor]
CC(=O)N(Cc1ccco1)C1(C(=O)NC2CCCCC2)CCCCC1,"inconclusive [inhibitor, single point]",–
O=C(NCc1cccnc1)c1nn(-c2ccc(Cl)cc2)nc1CO,"inconclusive [inhibitor, partial curve]",–
CN(Cc1ccc(Cl)cc1Cl)C(=O)Cc1ccc(S(=O)(=O)N2CCOCC2)s1,"inconclusive [inhibitor, single point]",–
CC(=C/C(=O)O)/C=C/c1ccc(Cl)o1,inactive,–
COc1ccc(S(=O)(=O)Nc2ccc3c(c2)C(=O)N([C@H](C)CO)C[C@H](C)[C@@H](CN(C)C(=O)Nc2c(C)noc2C)OCCCC[C@H](C)O3)cc1,inactive,–
COc1ccc(NC(=O)c2cccc(N3C(=O)c4cccc([N+](=O)[O-])c4C3=O)c2)cc1,inactive,–
COC(=O)CNC(c1ccccc1Cl)c1cc(Br)ccc1NC(=O)CCN1CCOCC1 (stereo not drawn),"inconclusive [inhibitor, full curve, poor fit]",–

SMILES,Potency,"activity change, negative = growth inhibition"
O=C(NCc1ccccc1)c1cccc(COc2ccc3c(c2)CCC3)c1,"inconclusive [inhibitor, single point]",–
COc1ccccc1NC(=O)CCCc1c[nH]c2ccccc12,inactive,–
COc1ccc2oc(=O)cc(CN3CCN(Cc4ccc(OC)c(OC)c4OC)CC3)c2c1,"inconclusive [inhibitor, single point]",–
Cc1ccccc1C(=O)N1CCN(c2ccc(NC(=O)c3ccccc3[N+](=O)[O-])cc2)CC1,"inconclusive [inhibitor, single point]",–
COCCn1c(SCC(=O)Nc2ccccc2C)nc2c(oc3ccccc32)c1=O,inactive,–
Cc1cccc(COC[C@H](CC(C)C)N2CCN(C(=O)c3ccc(C(F)(F)F)cc3)CCC2=O)c1,active: 16.4 µM,–
CCN1C(=O)/C(=C2/Sc3ccccc3N2CC)SC1=S,"inconclusive [inhibitor, partial curve, poor fit]",–
CC1CN(C(=O)c2ccc(OC3CCN(Cc4ccccn4)CC3)cc2)CCN1C (stereo not drawn),inactive,–
Cc1cc(C)n(-c2ccc(C(=O)NCC(=O)Nc3cc(Cl)ccc3Cl)cc2)n1,"inconclusive [inhibitor, single point]",–
COc1ccc(CCNC(=O)c2ccc(CSc3ccc(Cl)cc3)o2)cc1OC,active: 13.2 µM,–
Cc1ccc(C(=O)N(Cc2cc3cc4c(cc3nc2N2CCOCC2)CCC4)CC2CCCO2)s1 (stereo not drawn),inactive,–
CC(C)(C)OC(=O)N1CCC(NC(=O)c2[nH]cnc2C(=O)Nc2ccc(Cl)cc2)CC1,"inconclusive [inhibitor, single point]",–
COc1ccc(Nc2ncc3c(n2)CCN(Cc2ccccc2C)C3)c(OC)c1,active: 10.3 µM,–
CC1(C(=O)NS(=O)(=O)c2ccc(F)cc2F)CCN1C(=O)CCc1ccccc1 (stereo not drawn),inactive,–
CCCN(CC(=O)Nc1ccccc1OC)C(=O)c1ccc(S(=O)(=O)Nc2ccccc2OC)cc1,"inconclusive [inhibitor, single point]",–
CCc1nc2c(OCC(=O)C(C)(C)C)cccn2c1N(C)C(=O)C1CC1,inactive,–
CCCc1nc2ccc(C)cn2c1Cc1ccccc1,"inconclusive [inhibitor, single point]",–
Cc1ccc(S(=O)(=O)/N=C(\N)c2ccc(F)cc2)cc1,inactive,–
CC1CC(C)CN(C(=O)/C(=C\c2ccccc2)c2ccccc2)C1 (stereo not drawn),active: 13 µM,–
CCN(CC)S(=O)(=O)c1ccc(N/N=C(\C)c2ccncc2)c([N+](=O)[O-])c1,"inconclusive [inhibitor, partial curve, poor fit]",–
Oc1c(C(c2ccccn2)N2CCOCC2)ccc2cccnc12 (stereo not drawn),"inconclusive [inhibitor, single point]",–
CCCCc1ccc(N/C(N)=N/c2nc(C)cc(C)n2)cc1,active: 5.17 µM,–
CCOC(=O)[C@]12CCC=C1N(Cc1ccc(Cl)cc1Cl)C(=O)[C@H](CC(=O)NCCc1ccccc1OC)C2,"inconclusive [inhibitor, single point]",–
